The shares of active, inactive and inconclusive entries below differ from those in the screen. Entries that show only a call come without a potency. For part of these data: Potencies of inconclusive entries are doubtful fits and often do not repeat. The source made the active and inactive calls. Unless noted, calls follow the shape of the dose curve; as a rule, active = well fitted curve in the direction sought with a large enough effect in the repeat runs; inconclusive = weak or mixed curves; inactive = no such curve, though single readings can be large; an effect the other way counts as inactive or inconclusive.
Key:
[1] = qHTS assay for small molecule activators of the heat shock response signaling pathway - cell viability counter screen (AID 743209); conditions: HSE-bla HeLa viability, CellTiter-Glo luminescence, 5 h; activity change, negative = cytotoxicity: at 62.6 µM (top of the series); also: nearly all actives have a fitted effect of over 50% in size; also: potency is read from the fitted curve at half-maximal effect
Procedure, shortened: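 Same-well multiplex: after 2.5 h room-temperature incubation with LiveBLAzer B/G substrate and fluorescence reading, CellTiter-Glo reagent was added to HSE-bla HeLa cells that had received compound for 5 h at 37 C; luminescence read after 30 min.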

[2] = qHTS assay to identify small molecule agonists of the vitamin D receptor (VDR) signaling pathway - cell viability counter screen (AID 743224); conditions: VDR-bla HEK293T viability, CellTiter-Glo luminescence, 16 h; activity change, negative = cytotoxicity: at 62.6 µM (top of the series); also: nearly all actives have a fitted effect of over 50% in size
Procedure, shortened: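 In parallel with the bla FRET readout, cytotoxicity toward VDR-bla cells after 16 h compound exposure was assessed by CellTiter-Glo, with luminescence recorded after a 30 min room-temperature incubation.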

[3] = target: Peroxisome proliferator-activated receptor delta (Homo sapiens) (UniProt Q03181); test: qHTS assay to identify small molecule agonists of the peroxisome proliferator-activated receptor delta (PPARd) signaling pathway (AID 743212; calls by dose curve;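 also: HEK293H cells with PPARd UAS beta-lactamase reporter GeneBLAzer system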); conditions: HEK293H PPARd-UAS-bla, beta-lactamase FRET ratio, 17 h
UniProt Q03181, sequence (Q03181 whole entry, looked up): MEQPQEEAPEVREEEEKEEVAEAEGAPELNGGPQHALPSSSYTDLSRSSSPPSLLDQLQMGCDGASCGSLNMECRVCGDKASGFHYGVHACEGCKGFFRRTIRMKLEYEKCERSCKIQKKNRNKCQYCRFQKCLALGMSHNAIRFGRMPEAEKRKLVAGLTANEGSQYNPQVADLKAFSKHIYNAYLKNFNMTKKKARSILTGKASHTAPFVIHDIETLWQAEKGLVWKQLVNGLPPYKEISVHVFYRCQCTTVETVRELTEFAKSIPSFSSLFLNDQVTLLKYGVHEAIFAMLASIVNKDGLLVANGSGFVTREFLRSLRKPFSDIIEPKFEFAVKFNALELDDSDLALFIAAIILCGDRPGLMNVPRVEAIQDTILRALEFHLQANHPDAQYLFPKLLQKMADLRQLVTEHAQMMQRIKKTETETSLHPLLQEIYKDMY
Procedure, shortened: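 Beta-lactamase reporter read by fluorescence (LiveBLAzer B/G FRET, 2 h, room temperature). Test agents, in DMSO, incubated at 37 C with PPARd-bla HEK293H cells.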

[4] = qHTS assay to identify small molecule antagonists of the peroxisome proliferator-activated receptor delta (PPARd) signaling pathway - cell viability counter screen (AID 743213); conditions: PPARd-bla HEK293H viability, CellTiter-Glo luminescence, 17 h; viability change, negative = cytotoxic: at 62 µM (top of the series) unless noted; also: nearly all actives have a fitted effect of over 50% in size; also: potency is read from the fitted curve at half-maximal effect
Procedure, shortened: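 Same-well viability: cells pre-incubated 5 h, dosed with compound plus 300 nM L165041, kept 17 h at 37 C, FRET substrate 2 h RT, then CellTiter-Glo 30 min RT and luminescence.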

[5] = target: Vitamin D3 receptor (Homo sapiens) (UniProt P11473); test: qHTS assay to identify small molecule agonists of the vitamin D receptor (VDR) signaling pathway (AID 743222; calls by dose curve; also: potency is read from the fitted curve at half-maximal effect); conditions: HEK293T VDR-UAS-bla, beta-lactamase FRET ratio, 16 h; activation: at 63.5 µM (top of the series) unless noted
UniProt P11473, sequence (P11473 whole entry, looked up): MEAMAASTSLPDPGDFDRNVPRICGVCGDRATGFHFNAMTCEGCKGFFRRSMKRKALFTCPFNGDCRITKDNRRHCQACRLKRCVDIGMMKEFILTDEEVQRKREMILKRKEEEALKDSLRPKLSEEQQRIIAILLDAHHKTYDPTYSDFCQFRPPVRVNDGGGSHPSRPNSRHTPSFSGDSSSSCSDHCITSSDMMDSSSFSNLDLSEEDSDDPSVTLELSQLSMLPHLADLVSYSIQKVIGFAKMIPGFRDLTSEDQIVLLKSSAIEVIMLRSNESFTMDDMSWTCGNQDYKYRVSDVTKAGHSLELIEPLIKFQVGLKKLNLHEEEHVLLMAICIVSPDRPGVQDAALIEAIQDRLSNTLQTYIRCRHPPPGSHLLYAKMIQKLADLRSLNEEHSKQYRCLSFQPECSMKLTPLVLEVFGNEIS
Procedure, shortened: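 Following 4 h attachment at 37C, VDR-bla cells (2,000 per well) received DMSO-dissolved compounds or controls. After 16 h incubation, LiveBLAzer B/G FRET substrate was added and fluorescence read 2 h later at room temperature.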

[6] = target: Vitamin D3 receptor (Homo sapiens) (UniProt P11473); test: qHTS assay to identify small molecule antagonists of the vitamin D receptor (VDR) signaling pathway (AID 743223; active = well fitted inhibition curve with a large enough effect in the signal ratio in the repeat runs, not every such curve was filed as active; inconclusive = weak or mixed curves, or effect the other way; inactive = no such curve, though single readings can be large or run the other way; the % refers to the signal ratio; also: potency is read from the fitted curve at half-maximal effect); conditions: VDR-UAS-bla HEK293T, beta-lactamase FRET ratio, 16 h
Procedure, shortened: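 Agonist 1alpha,25-dihydroxyvitamin D3 (3 nM in well) was added with each compound to VDR-bla cells preincubated 4 h. Cells stood 16 h at 37C, then FRET substrate 2 h at room temperature; fluorescence intensity recorded.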

[7] = qHTS assay for small molecule activators of the heat shock response signaling pathway (AID 743210; active = well fitted activation curve with a large enough effect in the signal ratio in the repeat runs, with a control signal flat, not every such curve was filed as active; inconclusive = weak or mixed curves; the % refers to the signal ratio; also: potency is read from the fitted curve at half-maximal effect); conditions: HeLa HSE-bla reporter, beta-lactamase ratio, 5 h; activation: at 62.6 µM (top of the series) unless noted
Procedure, shortened: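 Heat shock element–beta-lactamase HeLa reporter cells; qHTS with compounds for 5 h at 37 C; detection by FRET substrate fluorescence after 2.5 h at RT.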

[8] = target: Peroxisome proliferator-activated receptor delta (Homo sapiens) (UniProt Q03181); test: qHTS assay to identify small molecule antagonists of the peroxisome proliferator-activated receptor delta (PPARd) signaling pathway (AID 743215; active = well fitted inhibition curve with a large enough effect in the signal ratio in the repeat runs, not every such curve was filed as active; inconclusive = weak or mixed curves, or effect the other way; inactive = no such curve, though single readings can be large or run the other way; the % refers to the signal ratio;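 also: cells stimulated with agonist L165041 at 300 nM final during compound exposure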); conditions: HEK293H PPARd-UAS-bla, beta-lactamase FRET ratio, antagonist, 17 h; ratio activity, negative = inhibition: at 62 µM (top of the series) unless noted
Procedure, shortened: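 Fluorescence from cleaved LiveBLAzer B/G FRET substrate (2 h, room temperature) reports PPARd-driven beta-lactamase in HEK293H UAS-bla cells. Cells had been treated 17 h at 37 C with compound plus 300 nM final L165041.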

[9] = target: Bile acid receptor (Homo sapiens) (UniProt Q96RI1); test: qHTS assay to identify small molecule antagonists of the farnesoid-X-receptor (FXR) signaling pathway (AID 743217; active = well fitted inhibition curve with a large enough effect in the signal ratio in the repeat runs, not every such curve was filed as active; inconclusive = weak or mixed curves, or effect the other way; inactive = no such curve, though single readings can be large or run the other way; the % refers to the signal ratio); conditions: HEK293T FXR-UAS-bla, beta-lactamase ratio, CDCA-stimulated, 16 h; activity change, negative = inhibition: at 62.6 µM (top of the series) unless noted
UniProt Q96RI1, sequence (Q96RI1 whole entry, looked up): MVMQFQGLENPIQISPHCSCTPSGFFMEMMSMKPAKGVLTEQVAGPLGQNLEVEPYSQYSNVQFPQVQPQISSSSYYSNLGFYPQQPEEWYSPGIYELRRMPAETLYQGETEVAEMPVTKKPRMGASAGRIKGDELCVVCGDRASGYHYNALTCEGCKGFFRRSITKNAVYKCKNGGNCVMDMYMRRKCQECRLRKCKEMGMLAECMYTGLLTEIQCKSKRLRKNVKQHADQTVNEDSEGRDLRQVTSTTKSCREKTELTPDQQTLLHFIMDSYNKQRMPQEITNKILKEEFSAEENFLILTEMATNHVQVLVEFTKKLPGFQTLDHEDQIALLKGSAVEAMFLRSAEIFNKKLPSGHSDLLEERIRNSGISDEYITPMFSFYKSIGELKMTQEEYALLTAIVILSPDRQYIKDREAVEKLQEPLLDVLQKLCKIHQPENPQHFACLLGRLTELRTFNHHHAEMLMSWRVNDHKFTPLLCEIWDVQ
Procedure, shortened: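 FRET fluorescence after 2 h room-temperature LiveBLAzer loading gives the readout. Prior step: FXR-bla HEK 293T cells, seeded and incubated 5 h, received test compounds plus 50 uM final CDCA for 16 h at 37 °C.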

[10] = qHTS assay to identify small molecule agonists of the farnesoid-X-receptor (FXR) signaling pathway - cell viability counter screen (AID 743218); conditions: FXR-bla HEK293T viability, CellTiter-Glo luminescence, 16 h; viability change, negative = cytotoxic: at 62.6 µM (top of the series) unless noted; also: nearly all actives have a fitted effect of over 45% in size; also: potency is read from the fitted curve at half-maximal effect
Procedure, shortened: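 Readout: CellTiter-Glo luminescence, 30 min RT, multiplexed after the FXR-bla FRET reading. HEK 293T FXR-UAS-bla cells received compound 5 h post-plating and were incubated 16 h at 37 C.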

[11] = qHTS assay to identify small molecule antagonists of the vitamin D receptor (VDR) signaling pathway - cell viability counter screen (AID 743225); conditions: VDR-bla HEK293T viability, CellTiter-Glo luminescence, 16 h; viability change, negative = cytotoxic: at 61 µM (top of the series) unless noted; also: nearly all actives have a fitted effect of over 50% in size; also: potency is read from the fitted curve at half-maximal effect
Procedure, shortened: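 Luminescent cell viability (CellTiter-Glo) in VDR-bla HEK 293T cells after 16 h compound exposure at 37C in the presence of 3 nM final 1-alpha,25-dihydroxy vitamin D3.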

[12] = qHTS assay to identify small molecule agonists of the peroxisome proliferator-activated receptor delta (PPARd) signaling pathway - cell viability counter screen (AID 743211); conditions: PPARd-bla HEK293H viability, CellTiter-Glo luminescence, 17 h; activity change, negative = cytotoxicity: at 62.6 µM (top of the series); also: nearly all actives have a fitted effect of over 55% in size; also: potency is read from the fitted curve at half-maximal effect
Procedure, shortened: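 Luminescent ATP viability assay (CellTiter-Glo, 30 min RT) in UAS-bla HEK293H cells carrying the PPAR delta reporter construct, 3000 cells/well, after a 17 h compound treatment at 37 C.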

[13] = qHTS assay to identify small molecule antagonists of the farnesoid-X-receptor (FXR) signaling pathway - cell viability counter screen (AID 743221; active = well fitted cell-killing curve with a large enough effect in the repeat runs, not every such curve was filed as active; inconclusive = weak or mixed curves, or effect the other way; inactive = no such curve, though single readings can be large or run the other way; also: nearly all actives have a fitted effect of over 50% in size); conditions: FXR-bla HEK293T viability, CellTiter-Glo luminescence, 16 h; activity change, negative = cytotoxicity: at 62.6 µM (top of the series) unless noted
Procedure, shortened: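 In GeneBLAzer FXR-UAS-bla HEK 293T cells stimulated with 50 uM chenodeoxycholic acid (final), compounds acted for 16 h at 37 C. Viability was assessed afterwards by CellTiter-Glo luminescence.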

[14] = target: Bile acid receptor (Homo sapiens) (UniProt Q96RI1); test: qHTS assay to identify small molecule agonists of the farnesoid-X-receptor (FXR) signaling pathway (AID 743220; active = well fitted activation curve with a large enough effect in the signal ratio in the repeat runs, not every such curve was filed as active; inconclusive = weak or mixed curves, or effect the other way; the % refers to the signal ratio); conditions: HEK293T FXR-UAS-bla, beta-lactamase FRET ratio, 16 h; activation: at 62.6 µM (top of the series)
Procedure, shortened: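 FXR-UAS-bla HEK 293T cells carrying a UAS-driven beta-lactamase reporter were plated for 5 h at 37C/5% CO2, then exposed to DMSO-dissolved Tox21 10K compounds for 16 h at 37C. A LiveBLAzer B/G FRET substrate was loaded for 2 h at room temperature before fluorescence reading.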

[15] = activation: at 62.6 µM (top of the series) unless noted
[16] = activity change, negative = inhibition: at 61 µM (top of the series) unless noted
Tags tell the direction and shape of the fitted curve or compound fluorescence and quenching.

## CCC(=O)O[C@]1(C(=O)COC)[C@@H](C)C[C@H]2[C@@H]3CCC4=CC(=O)C=C[C@]4(C)C3(F)[C@@H](O)C[C@@]21C (stereo not given in full)
[1]
  Potency: inconclusive: 33.5 µM [rising, single point]
[2]
  Potency: inactive

## C#CCN[C@@H]1CCc2ccccc21
[1]
  activity change, negative = cytotoxicity: inconclusive: 34.1%
[3]; [15]
  Potency: inactive

## CCCCC(CC)COC(=O)CS (stereo not given)
[1]
  Potency: inconclusive: 49.6 µM [cytotoxic, partial curve, poor fit]
[4]
  Potency: inconclusive: 0.871 µM [cytotoxic, full curve, poor fit]
[5]
  activation: inconclusive: -5.71%
[6]; [16]
  Potency: inactive

## CCC(C)OC(=O)N1CCCCC1CCO (stereo not given)
[7]
  Potency: inactive
[8]
  ratio activity, negative = inhibition: inconclusive: 1.86%
[9]
  Potency: inactive
[10]
  Potency: inconclusive: 0.0195 µM [rising, full curve, poor fit]
[6]; [16]
  Potency: inactive

## C=COCCOCCOCCOC=C
[7]
  activation: inconclusive: 8.2%
[8]
  Potency: inactive
[6]; [16]
  Potency: inactive

## CCOC(=O)c1cc(=O)c2c(OCC(COc3cccc4oc(C(=O)OCC)cc(=O)c34)OC(=O)[C@@H](N)CCCCN)cccc2o1
[7]
  Potency: inactive
[4]
  Potency: inactive
[8]
  ratio activity, negative = inhibition: inconclusive: 0.254%
[6]; [16]
  Potency: inactive

## COC(=O)[C@@H]1[C@H]2C[C@H]3c4[nH]c5ccccc5c4CCN3C[C@@H]2CC[C@@H]1O
[3]; [15]
  Potency: inactive
[8]
  ratio activity, negative = inhibition: inconclusive: 10.6%

## COC(=O)Nc1ccc(Cl)c(Cl)c1
[7]
  Potency: inactive
[6]; [16]
  Potency: inconclusive: 19.4 µM [activator, partial curve, poor fit]
[11]
  Potency: inactive

## C[n+]1ccn(CCO)c1
[12]
  Potency: inactive
[4]
  Potency: inconclusive: 7.1 µM [cytotoxic, full curve, poor fit]
[10]
  Potency: inconclusive: 0.0159 µM [rising, full curve, poor fit]

## CCCCS(=O)(=O)N[C@@H](Cc1ccc(OCCCCC2CCNCC2)cc1)C(=O)O
[3]; [15]
  Potency: inactive

## CC(C)CC=O
[12]
  Potency: inactive
[8]
  ratio activity, negative = inhibition: inconclusive: 7.84%
[9]
  Potency: inactive
[6]; [16]
  activity change, negative = inhibition: inconclusive: 28.7%
[11]
  Potency: inconclusive: 0.976 µM [rising, full curve, poor fit]

## CC(O)CNCC(C)O (stereo not given)
[3]; [15]
  activation: inconclusive: 0.637%
[3]; at 81.1 µM (top of the series)
  activation: inactive: 0.361%
[5]
  activation: inconclusive: -8.81% [at 81.1 µM]
[6]; [16]
  activity change, negative = inhibition: inconclusive: -0.471%
[6]; at 78.8 µM (top of the series)
  activity change, negative = inhibition: inactive: -4.83%
[11]
  Potency: inactive

## CC(C)CC(C)(N)C#N (stereo not given)
[7]
  Potency: inactive
[10]
  Potency: inconclusive: 5.56 µM [rising, partial curve, poor fit]
[6]; [16]
  activity change, negative = inhibition: inconclusive: 0.919% [at 78.8 µM]

## CC(C)CCCCCCCOC(=O)c1ccc(C(=O)OCCCCCCCC(C)C)c(C(=O)OCCCCCCCC(C)C)c1
[7]
  Potency: inconclusive: 48.2 µM [activator]
[6]; [16]
  activity change, negative = inhibition: inconclusive: -25.7%

## O=C(O)c1ccc2c(c1)nc(C(=O)NC1CCN(C3CC3)CC1)n2Cc1cc(-c2ccc(Cl)s2)on1
[3]; [15]
  Potency: inactive
[8]
  ratio activity, negative = inhibition: inconclusive: -6.58% [at 28.9 µM]
[10]
  Potency: inconclusive: 11.1 µM [rising, partial curve]

## Nc1nc2c(ncn2COC(CO)CO)c(=O)[nH]1
[1]
  Potency: inactive
[4]
  Potency: inactive
[6]; [16]
  Potency: inactive
[11]
  Potency: inactive

## CCCCOCCOCCOCCOCCO
[1]
  Potency: inactive
[8]
  Potency: inactive
[10]
  Potency: inconclusive: 49 µM [cytotoxic, partial curve, poor fit]
[6]; [16]
  activity change, negative = inhibition: inconclusive: 0.868%
[11]
  Potency: inconclusive: 61.6 µM [cytotoxic, single point]

## O=C(O)c1cn(-c2ccc(F)cc2)c2cc(N3CCNCC3)c(F)cc2c1=O
[7]
  Potency: inactive
[10]
  Potency: inactive
[13]
  Potency: inactive

## O=S(=O)(O)NC1CCCCC1
[12]
  Potency: inconclusive: 0.083 µM [cytotoxic, full curve, poor fit]
[10]
  Potency: inconclusive: 24.5 µM [rising, partial curve, poor fit]

## CN(C)C(=O)NC1(c2ccccc2)CCN(CC[C@@]2(c3ccc(F)c(F)c3)CN(C(=O)c3ccccc3)CCO2)CC1
[12]
  Potency: inconclusive: 28.7 µM [cytotoxic, partial curve, poor fit]
[10]
  Potency: inconclusive: 51 µM [cytotoxic, partial curve, poor fit]
[5]
  Potency: inconclusive: 40.5 µM [rising, partial curve, poor fit]
[6]; [16]
  Potency: inactive

## COC(=O)c1cc(Cl)c(NC(C)=O)cc1OC
[12]
  Potency: inactive
[14]
  Potency: inactive
[6]; [16]
  Potency: inactive

## CC(=O)c1ccccc1O
[7]
  Potency: inactive
[5]
  Potency: inactive
[6]; [16]
  Potency: inactive

## Cc1c(F)cc2c(=O)c(C(=O)O)cn3c2c1CCC3C (stereo not given)
[12]
  Potency: inactive
[8]
  ratio activity, negative = inhibition: inconclusive: -0.0649%
[5]
  Potency: inactive

Source: PubChem BioAssay (Tox21)
